In the supplement of paper PMC4967469:

Assays:
Experiment in all cases: Viability of human cancer cell lines after 72 h of drug (GDSC screen)
[1] = compound: CCc1cc2c(cc1N1CCC(N3CCOCC3)CC1)C(C)(C)c1[nH]c3cc(C#N)ccc3c1C2=O [CH5424802]; details: top dose 5.12 µM; top dose inferred
Method: (§1)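 Human cancer cell lines in 384-well plates, medium with 10% serum, drug for 72 h over a 256-fold dose range (nine 2-fold or five 4-fold steps up to the top dose). Adherent lines were fixed and stained with the nucleic acid dye Syto60, suspension lines read with resazurin; signal relative to control wells, capped at 0 and 100%. One two-parameter sigmoid per drug and line, fitted in a mixed model over all curves with the slope shared within a line.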

[2] = compound: CC(C)(C)OC(=O)Nc1ccc(-c2cc(C(=O)NCCCCCCC(=O)NO)no2)cc1 [CAY10603]; details: top dose 20 µM; top dose inferred
Method: as §1

[3] = compound: N#Cc1c(C2CCNCC2)cc(-c2c(O)cccc2OCC2CC2)nc1N [ACHP (KIN001-260)]; details: top dose 20 µM; top dose inferred
Method: as §1

Row | Cell Line | AUC [1] | IC50 [1] [µM] | AUC [2] | IC50 [2] [µM] | AUC [3] | IC50 [3] [µM]
1 | MOLM-13 (acute myeloid leukaemia, suspension) | 0.438 | 0.219 | 0.364 | 0.539 | 0.622 | 2.64
2 | L-540 (Hodgkin lymphoma, suspension) | 0.989 | > 5.12 | 0.985 | > 20 | 0.961 | > 20
3 | CCF-STTG1 (glioma, adherent) | 0.988 | > 5.12 | 0.878 | > 20 | 0.985 | > 20
4 | BEN (non-small cell lung carcinoma, adherent) | 0.971 | > 5.12 | 0.765 | 8.35 | 0.973 | > 20
5 | NCI-H23 (lung adenocarcinoma, adherent) | 0.959 | > 5.12 | 0.601 | 2.36 | 0.988 | > 20
6 | TCCSUP (bladder, adherent) | 0.984 | > 5.12 | 0.636 | 3.14 | 0.984 | > 20
7 | OAW-28 (ovary, adherent) | 0.965 | > 5.12 | 0.393 | 0.587 | 0.938 | > 20
8 | Ca-Ski (cervix, adherent) | 0.967 | > 5.12 | 0.43 | 0.785 | 0.975 | > 20
9 | PA-1 (ovary, adherent) | 0.987 | > 5.12 | 0.131 | 0.129 | 0.911 | 17.5
10 | CAL-29 (bladder, adherent) | 0.979 | > 5.12 | 0.579 | 2.09 | 0.981 | > 20
11 | RH-41 (rhabdomyosarcoma, adherent) | 0.992 | > 5.12 | 0.548 | 1.65 | 0.992 | > 20
12 | SK-MEL-24 (melanoma, adherent) | 0.983 | > 5.12 | 0.6 | 2.5 | 0.927 | > 20
13 | NCI-H526 (small cell lung carcinoma, suspension) | 0.939 | > 5.12 | 0.599 | 2.31 | 0.919 | > 20
14 | HCC-33 (small cell lung carcinoma, adherent) | 0.984 | > 5.12 | 0.405 | 0.684 | 0.972 | > 20
15 | NKM-1 (acute myeloid leukaemia, suspension) | 0.947 | > 5.12 | 0.285 | 0.301 | 0.804 | 10.3
16 | TE-11 (oesophagus, adherent) | 0.989 | > 5.12 | 0.904 | > 20 | 0.99 | > 20
17 | GAMG (glioma, adherent) | 0.976 | > 5.12 | 0.392 | 0.621 | 0.966 | > 20
18 | SU-DHL-6 (B-cell lymphoma, suspension) | 0.986 | > 5.12 | 0.2 | 0.224 | 0.765 | 5.61
19 | MIA-PaCa-2 (pancreas, adherent) | 0.985 | > 5.12 | 0.728 | 6 | 0.984 | > 20

Row | Cell Line | AUC [1] | IC50 [1] [µM] | AUC [2] | IC50 [2] [µM] | AUC [3] | IC50 [3] [µM]
20 | EFO-27 (ovary, adherent) | 0.965 | > 5.12 | 0.501 | 1.26 | 0.956 | > 20
21 | TGBC11TKB (stomach, adherent) | 0.992 | > 5.12 | 0.65 | 3.09 | 0.975 | > 20
22 | AM-38 (glioma, semi-adherent) | 0.983 | > 5.12 | 0.391 | 0.624 | 0.967 | > 20
23 | HCC1806 (breast, adherent) | 0.972 | > 5.12 | 0.606 | 2.38 | 0.969 | > 20
24 | P30-OHK (lymphoblastic leukaemia, suspension) | 0.976 | > 5.12 | 0.232 | 0.247 | 0.866 | 13.1
25 | SNU-1040 (large intestine, adherent) | 0.967 | > 5.12 | 0.685 | 4.96 | 0.886 | > 20
26 | Raji (Burkitt lymphoma, suspension) | 0.988 | > 5.12 | 0.433 | 0.828 | 0.915 | > 20
27 | LN-405 (glioma, adherent) | 0.973 | > 5.12 | 0.623 | 2.98 | 0.966 | > 20
28 | H2818 (mesothelioma, adherent) | 0.982 | > 5.12 | 0.832 | 13.4 | 0.989 | > 20
29 | NCI-H1838 (lung adenocarcinoma, adherent) | 0.939 | > 5.12 | 0.892 | > 20 | 0.983 | > 20
30 | G-402 (soft tissue, adherent) | 0.978 | > 5.12 | 0.692 | 5.23 | 0.951 | > 20
31 | MHH-NB-11 (neuroblastoma, adherent) | 0.966 | > 5.12 | 0.452 | 0.911 | 0.922 | > 20
32 | Hs633T (fibrosarcoma, adherent) | 0.99 | > 5.12 | 0.422 | 0.799 | 0.968 | > 20
33 | NCI-H2196 (small cell lung carcinoma, adherent) | 0.977 | > 5.12 | 0.456 | 0.944 | 0.951 | > 20
34 | COLO-679 (melanoma, adherent) | 0.984 | > 5.12 | 0.778 | 9.08 | 0.985 | > 20
35 | KP-2 (pancreas, adherent) | 0.984 | > 5.12 | 0.647 | 3.31 | 0.982 | > 20
36 | SU-DHL-5 (B-cell lymphoma, suspension) | 0.977 | > 5.12 | 0.122 | 0.131 | 0.904 | 14.8
37 | OPM-2 (myeloma, suspension) | 0.899 | 4.39 | 0.299 | 0.386 | 0.879 | 14.1
38 | MDA-MB-231 (breast, adherent) | 0.856 | 4.55 | 0.696 | 4.61 | 0.986 | > 20

The IC50 comes from the fitted curve, where viability falls to half of the control; a fit beyond the top or the lowest dose is shown as a bound at that dose. AUC, from the same fit, is the share of area under the viability curve across the 256-fold dose range; it is 1 without any effect and falls as sensitivity rises. The top dose, if marked as inferred, was derived from the fitted curves, not read from the paper.
